For 91 molecules, survival results are on record in PubChem BioAssay AID463173 (ICCB-Longwood Screening Facility, Harvard Medical School, 2010).

Structures are written as SMILES. Out of some 52,000 compounds screened, about 1,700 (3.3%) were called active. Rule as the data show it: active = survival mostly below about 52% (no sharp cut-off); inactive = mostly above about 56%. Some of the results follow.

This assay relates to Wild type. Put plainly: growth inhibition of S. aureus wild type versus tarO mutant, primary screen, teichoic acid synthesis inhibitors, RN4220, OD600 (AID 463173). To be noted: S. aureus RN4220 wild type/DeltatarO growth, OD600, 18 h, stronger effect = lower value, screened at 18.75 µg/mL (by protocol).
As to `Cc1cc(=O)n(Cc2cccc(Br)c2)c2c1c(C)nn2-c1ccccc1`, the survival is inactive: 76%. The value for `CC(C)(C)Sc1cc(C(=O)O)sc1C(=O)O` was inactive: 106%.

`Cc1ccc(Nc2cc(=O)[nH]c(=O)[nH]2)cc1C`: the survival was inactive: 88%. Regarding `COc1cccc(C(=O)N2CC(=O)Nc3ccc(C)cc3C2c2ccc(F)cc2)c1OC` (stereo unspecified), the survival is inactive: 140%. `COc1ccc(NC(=O)CC2C(=O)N(c3ccc(OC)cc3)C(=O)N2C2CCCCC2)cc1` (stereo unspecified): the survival is inactive: 90%. As to `Cc1c(Cl)cccc1-n1c(SCC(=O)NCc2ccccc2)nc2n[nH]c(C)c2c1=N`, the survival was inactive: 134%. Consider `Cc1ccc(C(=O)N2c3ncnn3C3(CCCCC3)[C@@H]3CCCC[C@@H]32)cc1`, for which the survival was inactive: 81%. Consider `COc1cccc(OCC(=N)N)c1`, for which the survival is inactive: 123%. Take `COc1ccc(Cl)cc1NC(=O)CSc1nnc(C)n2c1cc1sccc12`: the survival was inactive: 70%.

Take `CCCOc1ccc(CNC(=O)C(C)n2nc(C)n3c(cc4occc43)c2=O)cc1` (stereo unspecified): the survival is inactive: 68%.

Consider `COc1ccc(OC)c(CNC(=O)CCc2c(C)nc3c(c2C)c(=O)n(C)c(=O)n3C)c1`, for which the survival was inactive: 69%.

With `Cc1ccc2oc(=O)c(-c3nc4ccc(C)cc4[nH]3)cc2c1`, the survival was inactive: 124%. The value for `CCC1CCCCN1S(=O)(=O)c1ccc(NC(=O)c2nc(SC)ncc2Cl)cc1` (stereo unspecified) was inactive: 81%; that for `CCc1ccccc1NS(=O)(=O)c1ccc(-c2coc(C)n2)cc1` was inactive: 138%.

With `Cc1oc2ncnc(N3CCCCC3)c2c1C(=O)Nc1cccc(Cl)c1C`, the survival is inactive: 120%. In the case of `Cc1nc2cc(-c3ccccc3)nn2c(C)c1CCC(=O)NCCc1ccccc1`, the survival was inactive: 88%.

For `Cn1c2c(c(=O)n(C)c1=O)C(c1cc(Br)ccc1F)CC(=O)N2` (stereo unspecified), the survival is inactive: 78%. For `Cc1cccc(C)c1NC(=O)c1c(C)oc2c1C1=NCCN1C=N2`, the survival was inactive: 82%. For `CCCOCc1cc(CN2CCN(c3cccc(Cl)c3)CC2)c(O)c2ncccc12`, the survival is inactive: 84%. Take `COc1ccc(CC(=O)Nc2ccc(-c3nc4ccccc4s3)cc2Cl)cc1OC`: the survival was inactive: 65%.

For the molecule `COc1ccc(Nc2cc(C(=O)NCCCN(C)c3ccccc3)c3ccccc3n2)c(OC)c1`, the survival is inactive: 72%. For the molecule `Cc1ccc2[nH]c(CSc3nnc(NC(=O)COc4ccccc4C)s3)cc(=O)c2c1`, the survival was inactive: 127%. Take `COC(=O)c1ccc(NC(=O)c2cc(S(=O)(=O)N3CCC(C)CC3)cn2C)cc1`: the survival was inactive: 131%. Regarding `CCOC(=O)c1ccc(Nc2nc(N)c3cc(OC)c(OC)cc3n2)cc1`, the survival is inactive: 70%. The value for `Cc1cccc(CCNC(=O)c2ccc3c(c2)nc2n3CCOC2)c1` was inactive: 60%. As for `Cn1c(=O)n(C)c2cc(S(=O)(=O)N3CCCCC3)ccc21`, the survival is inactive: 111%.

On to `CCn1cc(C(=O)NCCCN2CCC(C)CC2)c(=O)c2cc(S(=O)(=O)N(C)C3CCCCC3)ccc21`, for which the survival is inactive: 86%. Regarding `Cc1nn(C)c2c1c(-c1ccccc1)cc(=O)n2C(C)C(=O)NCCc1ccc(Cl)cc1` (stereo unspecified), the survival is inactive: 78%. In the case of `COc1ccc(S(=O)(=O)NCC(c2ccco2)N2CCN(c3ccccc3F)CC2)cc1OC` (stereo unspecified), the survival was inactive: 69%. Turning to `CC(C)c1nc2ccc(C(=O)NCc3ccc(F)cc3)cc2o1`, the survival was inactive: 77%.

For `COc1ccc(-c2ccc3c(N)c(C(=O)Nc4ccc(C)cc4C)sc3n2)cc1OC`, the survival is inactive: 89%. With `CCc1cccc(NC(=O)C2CCCN2S(=O)(=O)c2ccc3c(c2)n(C)c(=O)c(=O)n3C)c1` (stereo unspecified), the survival is inactive: 84%. For `CC1CCN(C(=O)c2ccccc2NC(=O)c2nsc3ccccc23)CC1`, the survival is inactive: 136%. For the molecule `CCOc1ccc(-c2cc(NC(=O)c3c(F)cccc3F)c(C(=O)OC)s2)cc1`, the survival was inactive: 65%. The figure for `COc1ccccc1N1CCN(C(=O)c2nc(-c3ccc(C)cc3)n3c2CCCCC3)CC1` is inactive: 85%; for `COc1ccc(CNC(=O)CCc2c(C)nn(-c3ccc(N4CCCC4)nn3)c2C)c(OC)c1` it is inactive: 71%. Regarding `COCCn1c(SCc2ccncc2)nc2ccccc2c1=O`, the survival was inactive: 101%. `COc1ccc(-n2c(SCC(=O)Nc3cc(C)cc(C)c3)nc3c(oc4ccccc43)c2=O)cc1`: the survival was inactive: 95%. Take `COC(=O)c1c(NC(=O)C(C)Oc2ccc(Cl)cc2Cl)sc2c1CCCC2` (stereo unspecified): the survival is inactive: 57%. For the molecule `COc1ccc(NC(=O)c2cc(S(=O)(=O)N3CCCCC3)c[nH]2)cc1Cl`, the survival was inactive: 85%. Take `Cc1ccc(NC(=O)c2c(C)oc3ccc(O)c(CN4CCCCC4)c23)cc1`: the survival is inactive: 86%.

For `Cc1cc(NC(=O)CC(C)C)cc(-c2nc3ncccc3o2)c1O`, the survival is inactive: 69%. Take `Cc1cc(C)c(/C=C/c2onc(C)c2S(=O)(=O)N2CCC(C(=O)NCC(C)c3ccccc3)CC2)c(C)c1` (stereo unspecified): the survival was inactive: 115%. For the molecule `O=C(CCS(=O)(=O)c1cc2c3c(c1)CCN3C(=O)CC2)NCc1ccc(Cl)cc1`, the survival was inactive: 78%.

With `COc1ccc(/C=C/c2nc(C#N)c(NC3CCCCC3)o2)cc1OC`, the survival was inactive: 71%. The figure for `Cc1ccc(CNC(=O)CCc2c(C)nn(-c3ccc(N4CCCC4)nn3)c2C)cc1` is inactive: 121%; for `CCc1cccc(C)c1Nc1c(-c2cccc(O)c2)nc2cnccn12` it is inactive: 90%; for `CCOC(=O)C1=C(CN2CCN(c3ccccc3F)CC2)NC(=O)NC1c1ccc(OC)cc1` (stereo unspecified) it is inactive: 67%. Turning to `COC(=O)CSc1ccc2nnc(CCNS(=O)(=O)c3ccc(C)cc3)n2n1`, the survival was inactive: 87%. In the case of `COc1ccccc1CNC(=O)Cn1c(-c2cccs2)cc2cc(F)ccc21`, the survival was inactive: 84%. Regarding `CCOc1ccccc1NC(=O)Cn1nc2c3cc(F)ccc3n(Cc3cccc(C)c3)cc-2c1=O`, the survival is inactive: 81%. Turning to `COc1ccc(CCNC(=O)c2cc(-c3ccc(Cl)cc3)on2)cc1OC`, the survival was inactive: 82%. The value for `COc1cccc(NC(=O)CCc2nc(-c3cc(OC)c(OC)c(OC)c3)no2)c1` was inactive: 84%. Take `COc1cc2c(C(=O)N3CCN(c4ccc(C)cc4)C(C)C3)cn(CC(C)C)c(=O)c2cc1OC` (stereo unspecified): the survival was inactive: 71%. The figure for `Cc1nc2ccccn2c(=O)c1NC(=O)c1ccccc1Cl` is inactive: 129%; for `CCOC(=O)c1ccc(NC(=O)c2cc3c(=O)n(C)c4ccccc4c3n2C)cc1` it is inactive: 86%. Regarding `O=C(N/N=C/c1ccc(OC(=O)c2ccco2)cc1)c1ccccn1`, the survival was inactive: 103%. Consider `Cc1ccc(C)c(NC(=O)C(=O)NCCc2csc(-c3cccc(F)c3)n2)c1`, for which the survival is inactive: 72%.

For the molecule `Cn1c(=O)cc(SCC(=O)Nc2cccc(C#N)c2)c2ccc(Cl)cc21`, the survival was inactive: 80%. The value for `COc1ccc(N2CCN(C(=O)Cc3noc4ccc(C)cc34)CC2)cc1` was inactive: 76%; that for `CCc1cc(S(=O)(=O)n2ccnc2)ccc1OC` was inactive: 93%. Turning to `Cc1ccc(CN2CCc3nc(N4CCN(C)CC4)ncc3C2)cc1`, the survival was inactive: 87%. For `O=C(CN1C2=NCCCN2c2ccccc21)c1cccs1`, the survival is inactive: 105%. With `CCc1ccc(NC(=O)Cn2ccn(-c3cccc(Cl)c3)c(=O)c2=O)cc1`, the survival is inactive: 87%. For the molecule `COc1ccc(C(=O)N2CCC(c3ccncc3)CC2)cc1OC`, the survival is active: -6%. On to `Cc1ccc(C)c(N2CCN(C(=O)c3ccc4c(c3)c(C)c(C)n4C)CC2)c1`, for which the survival was inactive: 102%. The figure for `CCOc1ccccc1C1CC(=O)NC(C)=C1C(=O)OCc1ccc(C)cc1` (stereo unspecified) is inactive: 89%; for `Cc1nc2sccn2c(=O)c1S(=O)(=O)NCc1ccccc1` it is inactive: 73%; for `COc1ccc(Nc2nnc(-c3ccc(C)c(S(=O)(=O)N4CCN(C)CC4)c3)c3ccccc23)cc1` it is inactive: 74%.

Consider `COC(=O)c1ccc(OC)c(CN2CCCN(Cc3ccc(C)cc3)S2(=O)=O)c1`, for which the survival is active: -3%.

`COc1cc2c(cc1OC)C(COc1ccc3c(C)cc(=O)oc3c1)N(C(=O)c1ccc(C)c(C)c1)CC2` (stereo unspecified): the survival was inactive: 72%. In the case of `COc1ccc(Cl)cc1C(=O)NCC(c1ccc(N(C)C)cc1)N1CCOCC1` (stereo unspecified), the survival was inactive: 90%.

Turning to `Cc1oc2c(c1C(=O)Nc1ccc(Cl)cc1F)C1=NCCN1C=N2`, the survival was inactive: 93%.

As for `O=C(Nc1ccc2ncccc2c1)c1ccccc1`, the survival is inactive: 87%.

Regarding `Cc1cccc(C)c1OCC(=O)N(Cc1ccc(Cl)cc1)CC1CCCO1` (stereo unspecified), the survival was inactive: 79%. Regarding `CCCN(Cc1cccs1)C(=O)Nc1ccccc1C`, the survival is inactive: 92%. As to `CC1CCCN(c2csc3ccccc3c2=O)C1` (stereo unspecified), the survival was inactive: 97%. For `COc1ccc(N2C(=O)CC(N3CCCCC3C)C2=O)cc1` (stereo unspecified), the survival is inactive: 97%. As to `Cn1c(=O)c2c(nc(NCCc3ccccc3)n2Cc2ccc(Cl)c(Cl)c2)n(C)c1=O`, the survival is inactive: 83%. For `CC(C)c1nn2c(=O)cc(COC(=O)c3ccccc3NC(=O)c3cccs3)nc2s1`, the survival is inactive: 83%. As to `CCOc1ccc(N(Cc2cc3cc(C)ccc3[nH]c2=O)C(=O)c2cccc(Cl)c2)cc1`, the survival is inactive: 88%. Consider `COc1ccc(S(=O)(=O)NCCc2cn3ccsc3n2)cc1OC`, for which the survival is active: -3%.

In the case of `O=C(O)CCCC1OC(CCCC(=O)O)OC(CCCC(=O)O)O1` (stereo unspecified), the survival is inactive: 110%. On to `CCOC(=O)C1CCN(CCC(=O)Nc2ccccc2Cl)CC1`, for which the survival is inactive: 138%.

For the molecule `CCn1c2ccccc2c2nnc(N3CCN(c4cccc(C)c4C)CC3)nc21`, the survival is inactive: 88%. Regarding `O=C(NCCCN1CCOCC1)c1ccc2c(c1)N(Cc1ccccc1)C(=O)c1ccccc1S2`, the survival is inactive: 88%. The value for `Cc1ccc(C)c(CN2CCC(CNC(=O)Cn3ncc4c([nH]c5ccccc54)c3=O)CC2)c1` was inactive: 79%; that for `CCOc1ccc(NC(=O)NC(C)c2c(-n3cccc3)sc(C)c2C)cc1` (stereo unspecified) was inactive: 85%. Regarding `CCOC(=O)CSc1nc2sc3c(c2c(=O)n1Cc1ccccc1)CC(C)CC3` (stereo unspecified), the survival was inactive: 68%. Turning to `Cc1ccc(-n2ncc3c(NCCc4ccccc4)ncnc32)cc1C`, the survival was inactive: 111%.

`CCOc1ccccc1CNC(=O)CN1C(=O)CCCc2ccccc21`: the survival is inactive: 93%.
